Test results reported in the BET-seq Pho4 binding data (Le et al. 2018).
The other results are listed elsewhere or left out. The energies were worked out here from pooled read counts, against the library average; single values are noisy.

The sequences below were run against T1, Pho4 (S. cerevisiae) (UniProt P07270) (assay: relative binding free energy (BET-seq); higher = weaker binding). Conditions: reference: library average.
T1 sequence: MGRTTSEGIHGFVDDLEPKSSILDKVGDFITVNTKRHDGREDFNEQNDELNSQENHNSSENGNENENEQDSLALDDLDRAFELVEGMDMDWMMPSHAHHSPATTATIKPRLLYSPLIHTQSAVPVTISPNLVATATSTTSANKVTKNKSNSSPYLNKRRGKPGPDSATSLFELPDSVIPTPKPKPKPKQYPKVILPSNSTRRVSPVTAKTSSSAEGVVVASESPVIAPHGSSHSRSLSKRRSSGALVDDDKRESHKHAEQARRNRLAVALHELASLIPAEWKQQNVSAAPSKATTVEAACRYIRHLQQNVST

Sequence	relative binding free energy [kcal/mol]
TTATCCACGTGAATGT	0.44
TTCAACACGTGGGTGA	-0.01
GGGGGCACGTGAGTGC	0.03
AGTGTCACGTGCGAAG	0
TGAGTCACGTGTGTAG	0.09
GATGTCACGTGACGGT	0.34
TAGTACACGTGGGACG	-0.05
CTGATCACGTGTTATG	0.11
TGCGACACGTGATGTT	0.15
ATGTTCACGTGGGGTT	0.15
GTATGCACGTGGGTGT	-0.12
GGCGGCACGTGCGGGT	-0.11
CGTTTCACGTGGTTGC	0.12
AGTTGCACGTGCGGGG	-0.2
AGTTGCACGTGAGTCG	0.1
GTTATCACGTGAAATG	0.34
GGTGGCACGTGGCATT	-0.16
ATAAACACGTGTTAGT	0
CAAGGCACGTGAGTGT	0
CAGTTCACGTGAATGT	0.31
TAGCTCACGTGTCGGT	0.35
GAACTCACGTGGTGTG	0.18
AGCGTCACGTGAGAGG	0.14
TTGATCACGTGAGTTG	0.33
GGACCCACGTGGTGGG	-0.17

Sequence	relative binding free energy [kcal/mol]
ATTGTCACGTGGTTGA	0.01
TTAGGCACGTGATGAG	0.04
GCTGTCACGTGATGGA	0.17
GTTGTCACGTGCATGC	0.1
GTTAACACGTGATGAG	0.26
GGGATCACGTGTTTGG	0.3
ATTTTCACGTGGGTAT	0.13
TCAGGCACGTGAGGCT	0.24
TTTGACACGTGAGAAT	0.19
TAATGCACGTGTCAGT	-0.07
TGTATCACGTGGGGGC	0.07
TGTATCACGTGCTCGT	-0.03
ACTGGCACGTGGTCGT	-0.13
AAGGCCACGTGTGTTT	-0.08
GTTTCCACGTGCAGGT	0.23
TCGGTCACGTGGCGGA	0.13
TAAAACACGTGTTGTG	-0.01
AGTGGCACGTGGTTAC	-0.06
ATTAGCACGTGGGGGT	-0.26
TTTGTCACGTGATGTC	0.19
GACTGCACGTGGGTTG	0.02
CATTACACGTGGGGTT	-0.04
CGGATCACGTGTAAGG	0.44
AGGTTCACGTGTGCAG	0.25
CATGGCACGTGGTTCG	-0.13

Sequence	relative binding free energy [kcal/mol]
ATAAGCACGTGAAGGG	0.11
ATAATCACGTGTGTGC	0.18
AGGATCACGTGAAAGT	0.33
AGATTCACGTGTGTGA	0.33
GATAGCACGTGCTTGG	-0.07
GGTAACACGTGTTAAA	0.22
TTGTACACGTGGAATT	0.21
TTGGGCACGTGGCTTT	-0.19
GGTTTCACGTGGTAAC	0.41
AAAGACACGTGTTGGT	0.06
CAATTCACGTGGGGTT	0.22
GTGGGCACGTGCGGTT	-0.11
ATTGTCACGTGGTCTC	0.1
ATATTCACGTGTTGCG	0.26
GCTGTCACGTGAGGGT	0.19
TAGCGCACGTGTTGCT	0.05
ACAGACACGTGTGTGG	-0.01
CTAGTCACGTGCGTGG	-0.07
TATCGCACGTGTTTTA	-0.02
TTGGTCACGTGTCCAG	0.17
GGCGGCACGTGGGCGG	-0.14
GTGGTCACGTGGTTGA	0.15
GATATCACGTGGTTTG	0.06
GGTCACACGTGCGTGT	0.07
ATTGCCACGTGTTTAT	-0.15

Sequence	relative binding free energy [kcal/mol]
TGACTCACGTGTTGTG	0.09
CATTTCACGTGTGAGG	0.13
GTGATCACGTGCGGTG	-0.02
GTGACCACGTGTTTGT	0.01
ATGGACACGTGGTGGA	0.03
GCGTACACGTGGTTGG	0.01
ATATCCACGTGGTATT	-0.06
GGGTGCACGTGTTATA	0.03
TAGGCCACGTGTGGAG	-0.06
TGTACCACGTGTTGTT	-0.11
CAGATCACGTGGGCGG	-0.02
TTGGACACGTGTTGCG	0.01
TCGTTCACGTGAATGT	0.41
TGCAACACGTGTGGGT	0.01
AGTTGCACGTGTTAGA	-0.04
TTCTTCACGTGGTGTT	0.3
TGAGACACGTGTTTAT	-0.03
TGTTTCACGTGGTTTC	0.23
TGGGCCACGTGAAGGT	-0.03
TGAGACACGTGATTTT	0.24
AACGGCACGTGGGTGG	-0.24
ATGGGCACGTGGGGTG	-0.26
CGTGTCACGTGGCTGA	0.02
AGTAGCACGTGCGTGT	-0.26
CAAGGCACGTGGTATG	-0.22

Sequence	relative binding free energy [kcal/mol]
ATGCGCACGTGTAGTG	-0.03
GGCGGCACGTGATCGG	0.1
AGTAGCACGTGAGACG	0.24
CGGTGCACGTGGAGCT	0.03
GGGTTCACGTGTTCAG	0.39
GATTGCACGTGTTGCG	0.08
TTGCCCACGTGGGTGG	-0.24
TGGGCCACGTGAGTGA	0.21
TAGGGCACGTGTGGCT	-0.21
AACGGCACGTGTAGAG	0.06
GTGTTCACGTGGCTGG	0.22
TGAGGCACGTGTTGTT	-0.05
GATTCCACGTGGGAGG	0.06
GTAGTCACGTGAGGGG	0.37
TAAGGCACGTGCATGG	-0.21
TCATGCACGTGTTGGC	0.11
ATAAGCACGTGTTGTC	0
TAGTGCACGTGTTTAA	-0.11
GGGGGCACGTGCATCG	-0.13
GCTTGCACGTGTATTT	0.27
AAAATCACGTGATTTG	0.34
TAGGCCACGTGGTATG	-0.22
ATTGGCACGTGCTTGT	-0.21
TGATGCACGTGGATTT	0.02
ATTTACACGTGTGGAG	0.14

Sequence	relative binding free energy [kcal/mol]
TGATGCACGTGCTGGC	-0.04
ATGACCACGTGAGGGT	0.02
AGTCACACGTGGGTGG	-0.07
GGAAGCACGTGGGCTT	-0.15
TGGTGCACGTGTAGCT	-0.13
GGTGTCACGTGAGAGC	0.23
GGCAACACGTGGGTGT	-0.14
TGATGCACGTGATAGT	-0.05
TTTGCCACGTGGGAGT	-0.1
AGCTACACGTGAGGGT	0.26
TCGTCCACGTGTTGTG	-0.02
TAGAGCACGTGTGAAT	0.03
CGGGTCACGTGAGTTT	0.31
AAGGTCACGTGGCTGA	0.01
TGGCTCACGTGTGATG	0.33
AATGCCACGTGGGGTT	-0.35
AGAGGCACGTGAGTGT	0.16
GTGCGCACGTGTTGTG	-0.09
GGATTCACGTGGACTT	0.34
TTGGGCACGTGTTTCG	-0.16
GTTATCACGTGGTTCT	0.06
